Values joined by “and” are separate entries in the source; they are usually repeats but may differ in a detail not shown here. Identical values can stand only once. Hit rate of the full screen: of about 370,000 compounds, about 1,100 (0.3%) were called active. Inconclusive means that the source gave no clear call. Such entries were picked first, then a sample of the others. The call rests on the fitted dose curve; in most records, active means well fitted activation curve with a large enough effect; inconclusive means small, poorly fitted or top-dose-only effect; inactive means flat fitted curve, though single readings scatter. A potency beside an inconclusive call is a rough fit, not a confirmed value.
What follows are compounds tested against Relaxin receptor 1 (Homo sapiens) (UniProt Q9HBX9) (assay: qHTS Assay for Agonists of the Relaxin Receptor RXFP1). Conditions: HEK293T-RXFP1 cAMP TR-FRET, 30 min; series mostly up to 57.5 µM.
In short: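 HEK293T cells stably expressing RXFP1 were pretreated with the PDE4 inhibitor Ro 20174, exposed to compounds for 30 min at 37C, lysed, and cAMP was read by TR-FRET. Data normalized to buffer (basal) and 29 nM porcine relaxin (100%).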
Further: nearly all actives have a fitted effect of over 60% in size.
Potency means the concentration at half of the fitted maximal effect; tags describe the fitted curve by direction and shape.

Chain of UniProt Q9HBX9 (Q9HBX9 whole entry, looked up): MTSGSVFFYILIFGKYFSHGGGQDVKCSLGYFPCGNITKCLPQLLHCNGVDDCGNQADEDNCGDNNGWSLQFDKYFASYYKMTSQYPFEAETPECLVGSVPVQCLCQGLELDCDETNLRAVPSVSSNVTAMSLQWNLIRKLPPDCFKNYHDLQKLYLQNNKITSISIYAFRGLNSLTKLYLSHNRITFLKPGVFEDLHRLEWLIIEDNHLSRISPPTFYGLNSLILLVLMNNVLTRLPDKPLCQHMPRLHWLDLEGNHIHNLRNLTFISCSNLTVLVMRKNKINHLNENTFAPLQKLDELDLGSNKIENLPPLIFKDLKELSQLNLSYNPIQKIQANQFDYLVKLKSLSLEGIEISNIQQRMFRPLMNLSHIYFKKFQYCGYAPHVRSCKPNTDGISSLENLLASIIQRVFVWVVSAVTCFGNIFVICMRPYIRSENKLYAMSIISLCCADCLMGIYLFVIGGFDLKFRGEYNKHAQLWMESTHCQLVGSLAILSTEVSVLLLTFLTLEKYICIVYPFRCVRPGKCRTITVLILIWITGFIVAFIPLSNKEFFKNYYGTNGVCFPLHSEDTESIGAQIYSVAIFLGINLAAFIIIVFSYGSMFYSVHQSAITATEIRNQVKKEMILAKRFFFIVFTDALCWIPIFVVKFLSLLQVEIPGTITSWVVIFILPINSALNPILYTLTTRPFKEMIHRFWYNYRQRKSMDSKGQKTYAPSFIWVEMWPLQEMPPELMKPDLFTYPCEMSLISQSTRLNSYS

Potency, active:
CC(Sc1ccc2ccccc2n1)C(=O)O (stereo not given) 15.8 µM and 11.2 µM

Potency, inconclusive:
CC1(C)CC(=O)c2cc(C(=O)Nc3ccc(Cl)cc3)c(=O)[nH]c2C1 4.47 µM [activator, single point]
COc1cc(-c2cc3n(C)c(C)c(CCC(=O)Nc4ccc(F)cc4)c(=O)n3n2)cc(OC)c1OC 35.5 µM [activator, single point]
COc1ccc(-c2cc3ccc(OCC(=O)NCC4CCC(C(=O)O)CC4)cc3oc2=O)cc1 (stereo not given) 14.1 µM [activator, partial curve]
Cc1cccc(-n2ncc3c(N4CCc5ccccc54)ncnc32)c1 39.8 µM [activator, single point]
COc1ccc(C(=O)Nc2ccc(C(=O)Nc3cccc(C)c3)cc2)cc1 22.4 µM [activator, partial curve]
O=c1c2ccccc2nc(/C=C/c2ccc([N+](=O)[O-])o2)n1CCCO 15.8 µM [activator, partial curve]
COC(=O)c1ccccc1NC(=O)CSc1cc(-c2ccccc2)nc(C)n1 39.8 µM [activator, single point]
CCC(CC)C(=O)Nc1ccc(OCc2cc(=O)n3ccsc3n2)cc1 39.8 µM [activator, single point]
CCC(=O)N1CCc2cc(Br)cc(S(=O)(=O)N3CCN(c4ccc(C(C)=O)cc4)CC3)c21 31.6 µM [activator, single point]
COc1ccc(NC(=O)NNC(=O)COc2ccc3cc(Br)ccc3c2)cc1 11.2 µM [activator, partial curve]
Cc1ccnc2nc(C(=O)OCCOc3ccc(F)cc3)nn12 35.5 µM [activator, single point]
COc1ccc(NC(=O)c2ccccc2Sc2ccc(NC(C)=O)nc2)cc1 39.8 µM [activator, single point]

Potency, inactive:
COc1ccc([N+](=O)[O-])cc1NC(=O)CSc1nc(C)c(C)c(C)n1
Cc1ccccc1Oc1ncnc2oc(-c3ccccc3)cc12
COc1ccc(OC)c(NC(=O)Nc2cccc(OCc3cc(=O)n4cc(C)ccc4n3)c2)c1
CC(=O)c1ccc(N2C(=O)N(Cc3ccc(F)cc3)c3ccccc3S2(=O)=O)cc1
Cc1ccc(N=Cc2cccc(O)c2O)c(C)c1
CCOc1cccc(/C(O)=C2/C(=O)C(=O)N(Cc3cccnc3)C2c2ccco2)c1 (stereo not given)
OCCN1CCN(c2nc(-c3ccccc3)c3cc(Cl)ccc3n2)CC1
